From PubChem BioAssay AID540317 (National Center for Advancing Translational Sciences (NCATS), 2011)
In all, about 390,000 compounds went through this assay and about 2,200 (0.56%) were called active. This list was built around the results that the source calls inconclusive (neither active nor inactive); the mix of calls is not that of the screen. Calls come from the whole dose curve; as a rule, active = well fitted inhibition curve with a large enough effect; inconclusive = small, poorly fitted or top-dose-only effect; inactive = no such curve, though single readings can be large or run the other way. Potencies beside an inconclusive call are fits to weak or partial responses and may not hold up.

target: Chromobox protein homolog 1 (Homo sapiens) (UniProt P83916); assay: HTS for Inhibitors of HP1-beta Chromodomain Interactions with Methylated Histone Tails; details: AlphaScreen HP1-beta / biotin-H3K9me3 peptide binding; series mostly up to 114 µM; note: nearly all actives have a fitted effect of over 70% in size
UniProt P83916, sequence (P83916 whole entry, looked up): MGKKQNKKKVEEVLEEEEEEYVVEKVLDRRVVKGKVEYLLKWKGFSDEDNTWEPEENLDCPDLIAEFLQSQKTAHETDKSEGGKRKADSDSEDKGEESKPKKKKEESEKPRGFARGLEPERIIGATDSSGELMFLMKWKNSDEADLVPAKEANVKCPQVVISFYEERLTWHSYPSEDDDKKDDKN
In short: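 Compound inhibition of the preformed complex between 50 nM HP1-beta and 50 nM biotinylated H3K9me3 peptide was read by AlphaScreen. Buffer was PBS pH 7.4 with 0.01% Tween-20. Incubations ran 30 min at room temperature, with 10 ug/mL donor/acceptor beads.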
Potency is the fitted concentration of half-maximal effect; tags give direction and shape of the fitted curve.

SMILES | Potency
Brc1ccc2[nH]cc(/C=N/N3CCCCC3)c2c1 | inconclusive: 50.1 µM [inhibitor, single point]
O=C(O)c1cccc2c1NC(c1cccc([N+](=O)[O-])c1)C1CC(Sc3ccccc3[N+](=O)[O-])C(Cl)C21 (stereo unspecified) | inconclusive: 44.7 µM [inhibitor, partial curve]
Clc1ccc(N2CCN(Cc3ccccc3Cl)CC2)cc1 | inconclusive: 70.8 µM [inhibitor, partial curve]
CCc1ccc(/C=C(/C#N)C(N)=S)cc1 | inconclusive: 44.7 µM [inhibitor, single point]
Cn1c(O)c(C(=O)c2ccccc2F)c(=O)n(C)c1=O | inactive
COc1ccc(OC)c(NP(=O)(Oc2ccc(Cl)cc2)Oc2ccc(Cl)cc2)c1 | inactive
O=[N+]([O-])c1cnc2ccc3ccccc3c2c1 | inconclusive: 25.1 µM [inhibitor, partial curve, poor fit]
CN1CC(C(=O)c2ccc([N+](=O)[O-])cc2)C(c2ccc(Cl)cc2)C1 (stereo unspecified) | inconclusive: 39.8 µM [inhibitor, partial curve]
O=C(Cc1ccccc1)N1CCN(CC2CC3C=CC2C3)CC1 (stereo unspecified) | active: 50.1 µM
CCOc1ccc(CN(CCc2ccc3c(c2)OCO3)Cc2cccc(C)c2)cc1 | inconclusive: 14.1 µM [inhibitor, partial curve, poor fit]
CCOc1ccc(N=Cc2c(O)n(Cc3ccccc3)c(=S)[nH]c2=O)cc1 | inactive
O=C(Cc1ccccc1)N1CCN(Cc2ccc(Cl)cc2)CC1 | inconclusive: 14.1 µM [inhibitor, full curve]
CN1C(=O)NC(=O)/C(=C/c2ccc([N+](=O)[O-])s2)C1=O | inconclusive: 14.1 µM [inhibitor, full curve]
COc1cc(CN2CCc3nc(N4CCN(c5ccccn5)CC4)ncc3C2)cc(OC)c1OC | inconclusive: 50.1 µM [inhibitor, partial curve]
COc1ccc(CN2CCN(C(=O)COc3ccccc3)CC2)c(OC)c1 | inconclusive: 12.6 µM [inhibitor, partial curve, poor fit]
COc1ccccc1CN1CCN(C(=O)COc2ccc3ccccc3c2)CC1 | inconclusive: 17.8 µM [inhibitor, full curve]
Nc1c(C(=O)NCCN2CCOCC2)c2nc3ccccc3nc2n1Cc1ccco1 | inactive
O=C1NC(=S)N(C2CC2)C(=O)/C1=C/c1ccc2c(c1)CCN2CCCCl | inconclusive: 39.8 µM [inhibitor, full curve, poor fit]
COc1cc(CNCCc2ccc3c(c2)OCO3)cc(OC)c1OC | inconclusive: 56.2 µM [inhibitor, partial curve, poor fit]
S=P(NCCNP(=S)(N1CC1)N1CC1)(N1CC1)N1CC1 | inconclusive: 44.7 µM [inhibitor, partial curve]
Brc1ccc2[nH]cc(C=NN3CCCCCC3)c2c1 | inconclusive: 70.8 µM [inhibitor, partial curve]
Cc1ccc2c(c1)C1C[N+](C)(CC(=O)c3ccc(Cl)cc3Cl)CCC1N2C(=O)c1ccc(F)cc1 (stereo unspecified) | inconclusive: 44.7 µM [inhibitor, partial curve]

SMILES | Potency
COc1cc(CN2CCCC(C(=O)c3sccc3C)C2)cc(Cl)c1O (stereo unspecified) | inconclusive: 89.1 µM [inhibitor, single point]
CCOc1ccccc1OCCCCN1CCCC1 | inconclusive: 7.94 µM [inhibitor, partial curve, poor fit]
CCN(CC)c1ccc(NC(=O)c2cccc(C)c2)cc1S(=O)(=O)Nc1ccccc1OC | inconclusive: 3.55 µM [inhibitor, full curve, poor fit]
O=C1NC(=O)C(=Cc2ccc(N3CCN(C(=O)c4ccccc4)CC3)c([N+](=O)[O-])c2)C(=O)N1 | inconclusive: 14.1 µM [inhibitor, partial curve, poor fit]
CC(=NNC(=S)N1CC2CCC(CC2)C1)c1nccs1 | inconclusive: 70.8 µM [inhibitor, partial curve]
NCC(O)c1cc(O)c(O)cc1F (stereo unspecified) | inconclusive: 4.47 µM [inhibitor, full curve]
CC(=O)c1ccc(NC2CC(O)C(O)CO2)cc1 (stereo unspecified) | inconclusive: 35.5 µM [inhibitor, single point]
CC1Cc2ccccc2N1Cc1cccc(S(=O)(=O)N(C)C)c1 (stereo unspecified) | inconclusive: 25.1 µM [inhibitor, full curve]
COc1cc(OC)c(/C=C2\C(=O)Nc3ccccc32)c(OC)c1 | inconclusive: 44.7 µM [inhibitor, partial curve, poor fit]
OCCCc1ccc(O)c(O)c1 | inconclusive: 50.1 µM [inhibitor, partial curve, poor fit]
Cc1ccc(C=C2C(Cl)=C(Cl)C(Cl)=C2Cl)cc1 | active: 15.8 µM
Cc1ccccc1N1C(=O)NC(=O)/C(=C\c2cnn(-c3ccccc3)c2)C1=O | inactive
CCOC(=O)c1c(C)c(P(=S)(N2CCOCC2)N2CCOCC2)n(C)c1C | inconclusive: 44.7 µM [inhibitor, partial curve, poor fit]
Cc1ccc(N2C(=O)NC(=O)/C(=C\C=C\c3ccco3)C2=O)cc1C | inconclusive: 39.8 µM [inhibitor, partial curve]
COP(=S)(OC)c1c(C)nn(CCC#N)c1NC(=O)c1ccc(Cl)cc1 | inconclusive: 89.1 µM [inhibitor, single point]
CC(C)=CCC/C(C)=C/CN(CC(C)O)CC(C)O (stereo unspecified) | inconclusive: 5.62 µM [inhibitor, full curve]
Cc1cccc(N2C(=O)NC(=O)/C(=C/c3ccc([N+](=O)[O-])o3)C2=O)c1 | inconclusive: 39.8 µM [inhibitor, partial curve, poor fit]
CSc1ccc(CN2CCN(C(=O)COc3cccc(C)c3)CC2)cc1 | active: 39.8 µM
Cc1c(C=O)c2ccccc2n1Cc1cccc(F)c1 | inconclusive: 39.8 µM [inhibitor, single point]
Cc1cccc(-n2c(/C=C/c3c[nH]c4ccccc34)nc3ccccc3c2=O)c1 | inactive
Cc1cc(=O)oc2c(C)c(OCC(=O)N3CCC(C(=O)O)(c4ccccc4)CC3)ccc12 | inactive
COC(=O)OCC12CCC(O1)C1(C)C(=O)OCC21 (stereo unspecified) | inconclusive: 39.8 µM [inhibitor, single point]

SMILES | Potency
Cc1cccc(-n2c(O)c(/C=C/C=Nc3ccccc3)c(=O)[nH]c2=O)c1 | inactive
COc1cccc(N2C(=O)/C(=C/c3ccc(C)o3)C(=O)NC2=S)c1 | inconclusive: 50.1 µM [inhibitor, partial curve, poor fit]
C=CCN1C(=O)NC(=O)/C(=C/C=C/c2ccccc2)C1=O | inconclusive: 44.7 µM [inhibitor, partial curve]
COc1ccc2c(c1)c(CCN)c(C)n2Cc1ccccc1 | inconclusive: 14.1 µM [inhibitor, partial curve, poor fit]
O=C1NC(=O)N(Cc2ccc(F)cc2)C(=O)/C1=C\c1ccoc1 | inconclusive: 39.8 µM [inhibitor, partial curve]
CCOc1ccc(CN(CCc2ccc3c(c2)OCO3)Cc2cc(OC)ccc2O)cc1 | inconclusive: 14.1 µM [inhibitor, full curve, poor fit]
COc1ccc(CNCCc2ccccc2F)c(OC)c1C | inconclusive: 15.8 µM [inhibitor, full curve]
COC(=O)c1nc(-c2ccc3c(n2)C(=O)C(N)=C(OC)C3=O)c(N)c(-c2ccc(OC)c(OC)c2O)c1C | inactive
COc1ccc(CCN(C)Cc2ccncc2)cc1OC | inconclusive: 39.8 µM [inhibitor, partial curve]
CCOc1cccc(=NC2CCCCC2)c2c(C)[nH]c(C)c12 | inconclusive: 50.1 µM [inhibitor, partial curve, poor fit]
COc1ccc(N2C(=O)/C(=C/c3ccco3)C(=O)NC2=S)cc1 | active: 14.1 µM
O=c1[nH]c(=S)[nH]c(O)c1CN1CCCCC1 | inactive
COc1ccc2[nH]c3c(c2c1)CCN=C3C | inactive
O=[N+]([O-])c1ccc(-c2ccc(C=Nc3cccc4ccccc34)o2)cc1 | inconclusive: 8.91 µM [inhibitor, full curve]
CC1N=C(c2ccccc2Cl)c2cc(Br)ccc2NC1=O (stereo unspecified) | inconclusive: 89.1 µM [inhibitor, partial curve, poor fit]
FC(F)(F)c1ccccc1CN1CCN(Cc2ccccc2)CC1 | inconclusive: 44.7 µM [inhibitor, partial curve]
COc1ccccc1N1CCN(C2CCN(C(=O)c3cc(OC)c(OC)c(OC)c3)CC2)CC1 | inconclusive: 39.8 µM [inhibitor, partial curve]
CCCCOC(=O)CCN1C(=O)/C(=C2\SC(=S)N(CCC(=O)OCCCC)C2=O)SC1=S | inconclusive: 17.8 µM [inhibitor, full curve]
O=[N+]([O-])c1ccc(CNCCc2ccccc2)cc1 | inconclusive: 35.5 µM [inhibitor, partial curve]
CC(C)N1CCN(Cc2cccc([N+](=O)[O-])c2)CC1 | inconclusive: 17.8 µM [inhibitor, full curve]
O=C1NC(=S)SC1=Cc1ccc(N(CCCl)CCCl)cc1 | inconclusive: 22.4 µM [inhibitor, single point]
COc1cc([C@@H]2c3cc4c(cc3[C@H](O)[C@H]3COC(=O)[C@@H]23)OCO4)cc(OC)c1OC | inactive
